{"source": "patent US20220411514A1", "about": "“ANTI-GAL3 ANTIBODIES AND METHODS OF USE FOR INSULIN RESISTANCE” (TrueBinding, Inc., priority 2021, published 2022)", "key": {"[1]": {"target": "interaction between Gal3 and GLUT4 (Homo sapiens, UniProt P17931)", "sequence (P17931 whole entry)": "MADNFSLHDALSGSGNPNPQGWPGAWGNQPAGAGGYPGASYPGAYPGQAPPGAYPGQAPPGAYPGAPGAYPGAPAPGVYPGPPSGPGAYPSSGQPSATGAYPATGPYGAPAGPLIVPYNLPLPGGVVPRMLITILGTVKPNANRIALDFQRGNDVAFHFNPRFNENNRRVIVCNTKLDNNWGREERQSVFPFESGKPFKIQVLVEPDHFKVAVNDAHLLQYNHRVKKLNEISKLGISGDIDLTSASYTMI", "assay": "Gal3-GLUT4 blocking ELISA", "format": "binding", "conditions": "antibody 3-fold dilutions", "method": "(§1) Human Gal3 protein was diluted in PBS to a concentration of 2 μg/mL and used to coat a 96-well ELISA plate with 40 μL per well. After incubating the plate at 4° C. overnight, the plate was washed three times with 300 μL PBST. A blocking step was performed with 150 μL of 2% BSA in PBST per well and incubated for an hour at RT with gentle rocking. The existing blocking solution was then discarded form the plate. […] 30 μL of 3 μg/mL of FLAG-tagged GLUT1 or GLUT4 protein diluted in 2% BSA in PBST was then added to the appropriate wells containing antibody or control solution. The plate was incubated for an hour at RT with gentle rocking and then washed three times with 300 μL PBST. Afterwards, HRP-tagged anti-FLAG antibody was diluted to 1:4000 in 2% BSA in PBST, and 25 μL was added to all of the wells. The plate was incubated for an hour at RT with gentle rocking, and then washed with 300 μL PBST three times. To develop the plate, 50 μL of ABTS substrate was added to each well and incubated until a sufficiently high signal was achieved. The plate was read with a plate reader at an absorbance of 405 nm. Data was graphed using GraphPad Prism 8.0 software and IC50 values were generated using manufacturer instructions."}, "mouse Gal3": {"target": "mouse Gal3 (Mus musculus, UniProt P16110)", "sequence (P16110 whole entry)": "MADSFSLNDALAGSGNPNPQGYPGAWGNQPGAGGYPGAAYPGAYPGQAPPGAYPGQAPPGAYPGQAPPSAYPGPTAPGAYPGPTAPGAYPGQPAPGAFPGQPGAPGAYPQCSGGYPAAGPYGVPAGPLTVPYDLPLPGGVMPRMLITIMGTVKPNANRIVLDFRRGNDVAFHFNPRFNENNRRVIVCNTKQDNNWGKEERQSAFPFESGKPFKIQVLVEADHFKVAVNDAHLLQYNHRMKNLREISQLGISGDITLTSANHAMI", "assay": "Affinity kinetics to mouse Gal3 (Carterra LSA)", "format": "binding", "conditions": "Example 14", "method": "Kinetics experiments were performed on a Carterra LSA at 25° C.\nThen, a dilution series of Gal3 (2, 4, 8, 16, 32, 64, and 128 nM) in HBSTE with 0.5 mg/mL BSA was injected to the whole array for 300 seconds to allow association followed by dissociation for 240 seconds. The kinetics constants were calculated by the software NextGenKIT.\nThe affinity of Gal3 binding to antibody was determined by acquiring real time Ligand:Analyte binding kinetics data and fitting the data with a 1:1 monovalent binding model. The kinetic evaluation procedure determines association and dissociation constants by fitting the experimental data to a 1:1 interaction model between analyte A and ligand B:\nThe affinity KD is the result of Kd divided by Ka.\nThe protocol disclosed in Example 9 was generally followed."}, "[2]": {"tested_on": "GLUT4 translocation in L6 GLUT4myc myoblasts", "assay": "Insulin-independent GLUT4 translocation with Gal3 mutants complexed with antibody", "format": "cell-based, rat", "conditions": "no insulin", "method": "Rat L6 GLUT4myc myoblasts (Kerafast #ESK202-FP) express a Myc-tagged GLUT4 that can be detected with an anti-Myc antibody. These cells were grown in a 48-well plate in MEM u growth media (Gibco, #12-571-063)+10% fetal bovine serum (FBS; Corning #35-016-CV) until 90-95% confluence was reached. Cells were then washed in PBS and serum starved for 2 hours in MEM u growth media without FBS. Thirty (30) μg/mL recombinant human Gal3 (TrueBinding QCB200347) was pre-incubated with 60 μg/mL anti-Gal3 antibodies for 30 minutes before being added to the serum-starved cells for 1 hour at 37° C. At the end of incubation, half of the cells were treated with 100 nM insulin (Sigma-Aldrich #I5523-50MG) for 20 minutes while the other half acted as basal controls. After 20 minutes, cells were washed quickly with ice cold PBS twice, then incubated with 4% paraformaldehyde (Boster Bio #AR1068) for 10 minutes on ice followed by 10 minutes at room temperature. The cells were washed three times with PBS, then blocked with 0.5 mL 5% goat serum (Vector Laboratories #101098-382) in PBS for 15 minutes. […] Samples were read at 450 nm on a SpectraMax plate reader. […] Statistical significance was determined using unpaired T-tests comparing samples treated with Gal3 and insulin with all other conditions. […]"}, "Human Gal3 peptides": {"target": "T1, Human Gal3 peptides (Homo sapiens, UniProt P17931)", "T1 construct": "purchased LifeTein custom order", "T1 sequence (P17931 52-71)": "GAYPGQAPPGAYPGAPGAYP", "assay": "Gal3 peptide binding ELISA (Example 8)", "conditions": "antibody 5 μg/mL", "in_short": "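Reformatted hIgG4 (S228P) anti-Gal3 antibodies were tested at 5 μg/mL for 1 h at room temperature against immobilised human Gal3 peptides (≥100 μg/mL coating) or protein (1 μg/mL coating) on BSA-blocked plates. Bound antibody read by peroxidase goat anti-human IgG with TMB at 450 nm.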"}, "[3]": {"target": "interaction between Gal3 and GLUT1 (Homo sapiens, UniProt P17931)", "sequence (P17931 whole entry)": "as the sequence (P17931 whole entry) above", "assay": "Gal3-GLUT1 blocking ELISA", "format": "binding", "conditions": "antibody 3-fold dilutions", "method": "as §1"}}, "data": [{"molecule": "TB006: humanized anti-Gal3 antibody derived from mouse mAb, hIgG4 backbone (antibody, TB006 heavy chain peptide sequence; TB006 light chain peptide sequence, humanized anti-Gal3 antibody derived from mouse mAb, hIgG4 backbone) heavy: QVQLVQSGAEVKKPGASVKVSCKASGYSFTNYYMHWVRQAPGQRLEWMGWIYPGSGNTNYNEKFQGRVTITADTSASTAYMELSSLRSEDTAVYYCSTAPGGFDVWGQGTTVTVSSASTKGPSVFPLAPCSRSTSESTAALGCLVKDYFPEPVTVSWNSGALTSGVHTFPAVLQSSGLYSLSSVVTVPSSSLGTKTYTCNVDHKPSNTKVDKRV[in this place human IgG4 Fc with S228P (EU numbers)] light: DIVMTQTPLSLSVTPGQPASISCKSSKSLLHSDGITYLYWYLQKPGQSPQLLIYRMSNLASGVPDRFSGSGSGTDFTLKISRVEAEDVGVYYCAQMLEFPLTFGQGTKLEIKRTVAAPSVFIFPPSDEQLKSGTASVVCLLNNFYPREAKVQWKVDNALQSGNSQESVTEQDSKDSTYSLSSTLTLSKADYEKHKVYACEVTHQGLSSPVTKSFNRGEC", "values": [{"measurement": "inhibition of GLUT4 binding to Gal3", "setting": "[1]", "value": "concentration-dependent ability"}, {"measurement": "average affinity to mouse Gal3", "setting": "mouse Gal3", "value": "did not show any binding activity"}, {"measurement": "insulin-independent GLUT4 translocation, antibody complexed with hGal3 amino acids 2-112 (N-terminal domain)", "setting": "[2]", "value": "significantly reduced GLUT4 translocation"}, {"measurement": "insulin-independent GLUT4 translocation, antibody complexed with hGal3 amino acids 111-250 (C-terminal domain)", "setting": "[2]", "value": "significantly reduced GLUT4 translocation"}, {"measurement": "binding to Gal3 peptide 6 (SEQ ID NO: 8)", "setting": "Human Gal3 peptides", "value": "bound"}, {"measurement": "inhibition of GLUT1 binding to Gal3", "setting": "[3]", "value": "concentration-dependent ability"}]}]}
